The series deals with ATP. In words: switch fluorescence ratio, 500 uM ATP over buffer (Cy3 cluster intensity, sum of 5 cycles each) (fold (ratio)); higher = stronger signal-on switching upon ATP binding; sequences stand for … in TCGTCGGCAGCGTCAGATGTGTATAAGAGACAGTTTTTTTTTTTTTTTTTTTTTTTTT…TC. As to conditions: aptamer strand: ATP DNA aptamer (quencher-CACCTGGGGGAGTATTGCGGAGGAAGG + anchor), 100 nM annealed; ATP concentration: 500 uM; one replicate. The procedure, abridged: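 Per cluster, summed Cy3 intensity from the target cycles was divided by that from the buffer cycles to give the fluorescence ratio, then averaged per switch-domain sequence. Clusters outside 100-1000 RFU were excluded. The Cy3-labelled switching-strand clusters, on a modified Illumina MiSeq flow-cell, were annealed to 100 nM quencher-labelled ATP aptamer and imaged in selection buffer, then after 15 min with 500 uM ATP at 22 °C, for five cycles with NaOH stripping and re-annealing between them.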

Sequences with one replicate were seen in a single cluster, so their values are uncertain.
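Further: ATP exposure 15 min at 22 °C before imaging.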

As for TTTGTTTCCT, the switch fluorescence ratio came to 1. Regarding TTCAAAACCA, the switch fluorescence ratio was determined as 1.02. Turning to AGCGGGCGCG, the switch fluorescence ratio came to 1.01. As to AAACATATAA, the switch fluorescence ratio was 1. In the case of TTACTTTACT it was 1.34. In the case of ATCTCGAGA, the switch fluorescence ratio was found to be 0.998. On to ACGGCATGCC, for which the switch fluorescence ratio stood at 0.965. Regarding ACGTGTGAAG, the switch fluorescence ratio was 0.991. With GGTGTCTCAT, the switch fluorescence ratio amounted to 0.971.

For ATCGAACTTA, the switch fluorescence ratio is 0.99. In the case of TCAGGGTTAA it was 1.03; in that of GGGTTTGGTC, 0.99.

In the case of TGAGCTCATT, the switch fluorescence ratio turned out to be 0.975. In the case of TAGCGACTGT it was 1.01; in that of ATCTTGCCCT, 0.981. To ACAATATCCA belongs 0.994. To GTTAGTAAAG belongs 0.965. With GGTTTCGACC, the switch fluorescence ratio stood at 0.997. As for GCAACGTGAA, the switch fluorescence ratio amounted to 1.01.

For the sequence GCCCTATGCA, the switch fluorescence ratio was found to be 1.03.

For GTACGGGATA, the switch fluorescence ratio is 1. In the case of CGGAAGATGA it was 0.961; in that of GGGATACTGG, 1.02. For the sequence ACACATTCTT, the switch fluorescence ratio is 1.03. For ATGGATCGCG, the switch fluorescence ratio was determined as 0.968. To GCCTTGGCGC belongs 0.982; to TATTGAGAT, 0.974. As to TATAGGTCAC, the switch fluorescence ratio worked out at 1.02. As for ACATCGTTTT, the switch fluorescence ratio is 0.985.

For GACTTTAAA, the switch fluorescence ratio was found to be 0.989. To AGCATGCAAC belongs 1.07.

For GTATGTTGAG, the switch fluorescence ratio stood at 1.01. In the case of ACTGGGTTCT it was 0.984; in that of GCCCTAGCGA, 1.02. As for TATTGTGAC, the switch fluorescence ratio worked out at 1.01.

With TCGACAGCGC, the switch fluorescence ratio turned out to be 1.25. In the case of CTGCCTCCCT it was 1.81; in that of TAGGTTTTAT, 1.01. Take GAGATTACAG: the switch fluorescence ratio worked out at 0.989. On to GTTATCCCAG, for which the switch fluorescence ratio is 0.989. Consider TAGACCAGAT, for which the switch fluorescence ratio is 0.983. In the case of TTAGGTTGG it was 0.974; in that of CGTTGAGCG, 0.957. In the case of CCTGTATGTT it was 0.996; in that of ACGTAGACGG, 1.05. To CCGCATAAAG belongs 2.48. ATGTACTCTC: the switch fluorescence ratio came to 1.1.

As for AGGTTGAGTA, the switch fluorescence ratio amounted to 1. To TGGCTAGACG belongs 0.915; to CTGCTTGTGG, 1.04. In the case of CCTAGATTTG it was 1.01. On to TGCCACGATT, for which the switch fluorescence ratio is 1.02. For the sequence ATCGTTGTAA, the switch fluorescence ratio was 0.989. In the case of TCGTACTGA it was 1.04; in that of CTTCGATCGC, 1.69; in that of GAGACCTATG, 0.976.

Take CGCATAGTGA: the switch fluorescence ratio was found to be 1.02. As for TCATGGTGCT, the switch fluorescence ratio was determined as 1.08. Take AGTCGTCGTG: the switch fluorescence ratio was found to be 1.04. In the case of CGGCAACAGG it was 1.27; in that of CGGTAGGAG, 1.01; in that of ATCTTTAGGT, 0.982. As to AATACGCGGC, the switch fluorescence ratio amounted to 1.18. As for CCGAAGAGGG, the switch fluorescence ratio was found to be 1.31. In the case of GCATTGAACA it was 1.02; in that of TGCATAAGAC, 1.36; in that of TACATCGAGT, 0.998.

In the case of GAATTCCGTT, the switch fluorescence ratio is 1.02. TGTGTACATG: the switch fluorescence ratio was 1.01.

On to GACACGGAG, for which the switch fluorescence ratio was 1.04.

On to GATCTTCATT, for which the switch fluorescence ratio was found to be 0.961. As to AACCAGAATT, the switch fluorescence ratio stood at 1.04. Consider ACAAGTTCT, for which the switch fluorescence ratio was 1.03.

For ACACCTGGTA, the switch fluorescence ratio turned out to be 1.06. To GCGTGTAAC belongs 1.01; to CCGCGTCTGG, 1.18; to TTCTGACTGC, 1.12. To TCTCCTCATC belongs 2.29; to GACCCCCCAT, 1.33.

(Values after the supplement of paper PMC10126150.)
